# Measurements: the supplement of paper PMC12355420
# Where a name gives a salt, the structure may show the parent alone. This is one part of the list. Rule as the data show it: active = 0.5 or less and inactive = the rest. Repeats are few or missing, and single values can be far off.
# Columns and labels:
# Details in all cases: 50 µM; 24 h
# [1] = system: HeLa VPS33A reporter cells; test: relative cell viability (CellMask signal) vs DMSO (fraction of DMSO); higher = less cytotoxic;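 also: primary screen of an FDA-approved drug library in HeLa reporter cells in 96-well format, CellMask signal normalized to DMSO-treated wells set as 1, under 0.5 deemed highly cytotoxic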
# [2] = system: HeLa VPS33A R498W KI + HA-SDC1-FLAG; test: relative GAG core protein HA-SDC1 amount per cell number vs DMSO (fraction of DMSO); higher = more SDC1 (GAG core protein);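 also: HA-SDC1 level read out by In-Cell Western staining with an anti-HA antibody against the N-terminal tag, screening FDA-approved library drugs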
# [3] = system: HeLa VPS33A KO + NLuc-VPS33A R498W; test: relative mutant VPS33A R498W amount (NanoLuc luminescence) vs DMSO (fraction of DMSO); HeLa model of a glycosaminoglycan (GAG) storage disease; KI is knock-in and KO knock-out; SDC1 is syndecan 1; higher = higher mutant VPS33A level;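 also: screen of an FDA-approved drug library, NanoLuc luminescence read after lysing the treated cells, taken as a measure of mutant VPS33A protein stability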
SMILES,relative cell viability [1],relative GAG core protein HA-SDC1 amount per cell number [2],relative mutant VPS33A R498W amount [3]
O=CC[C@@H](O)[C@H](O)[C@H](O)CO [2-Deoxy-D-glucose],1.4,inactive: 0.827,0.802
CNC(=O)c1cc(Oc2ccc(NC(=O)Nc3ccc(Cl)c(C(F)(F)F)c3)c(F)c2)ccn1 [Regorafenib hydrochloride],1.06,inactive: 0.689,0.194
NC(=O)c1cn(Cc2c(F)cccc2F)nn1 [Rufinamide],1.02,inactive: 0.791,1.16
CO[C@@]1(NC(=O)Cc2cccs2)C(=O)N2C(C(=O)O)=C(COC(N)=O)CS[C@@H]21 [Cefoxitin (sodium salt)],1.04,inactive: 0.833,1.51
C/C=C\c1ccc(OC)cc1 [cis-Anethol],0.853,inactive: 0.557,0.755
COc1cc2ccc(=O)oc2cc1O [Scopoletin],0.98,inactive: 0.811,1.16
CC1=Nc2ccc(Cl)cc2S(=O)(=O)N1 [Diazoxide],1.1,inactive: 0.787,0.975
O=NO [Sodium Nitrite],0.997,inactive: 0.782,1.32
CCCCC/C=C\C/C=C\CCCCCCCC(=O)O [Linoleic Acid],1.14,inactive: 0.832,1.49
CCC/C=C1\OC(=O)C2=C1CCC=C2 [Z-Ligustilide],0.644,active: 0.497,1.24
N[C@@H](Cc1c[nH]c2ccccc12)C(=O)O [L-Tryptophan],1.03,inactive: 0.586,1.28
OB1OCc2cc(F)ccc21,1.04,inactive: 0.773,0.673
CC(=O)Nc1cccc(-n2c(=O)n(C3CC3)c(=O)c3c(Nc4ccc(I)cc4F)n(C)c(=O)c(C)c32)c1 [Trametinib DMSO solvate],1.18,inactive: 1.24,1.3
C#C[C@]1(O)CC[C@H]2[C@@H]3CCC4=Cc5oncc5C[C@]4(C)[C@H]3CC[C@@]21C [Danazol],1.12,inactive: 0.974,1.24
CNCC[C@@H](Oc1ccccc1C)c1ccccc1 [Atomoxetine HCl],0.982,inactive: 0.644,0.487
COc1ccccc1 [Anisole Methoxybenzene],1.2,inactive: 1.13,1.19
CN1CCC[C@H]1c1cccnc1 [Nicotine Difartrate],1.18,inactive: 1.1,0.911
Cc1cccc(Nc2ccncc2S(=O)(=O)NC(=O)NC(C)C)c1 [Torsemide],1.04,inactive: 0.819,1.27
CS(=O)(=O)c1ccc([C@@H](O)[C@@H](CF)NC(=O)C(Cl)Cl)cc1 [Florfenicol],0.904,inactive: 0.958,1.04
O=C(O)CNC(=O)c1ccccc1 [hippurate],1.07,inactive: 0.809,1.05
C#Cc1cccc(Nc2ncnc3cc(OC)c(OCCCCCCC(=O)NO)cc23)c1,0.988,inactive: 0.745,6.35

SMILES,relative cell viability [1],relative GAG core protein HA-SDC1 amount per cell number [2],relative mutant VPS33A R498W amount [3]
NC(=O)c1cccnc1 [Nicotinamide],1.06,inactive: 0.896,1.3
Nc1nc(Cl)nc2c1ncn2[C@H]1C[C@H](O)[C@@H](CO)O1 [Cladribine],1.39,inactive: 0.876,0.927
OCCOCCN1CCN(C(c2ccccc2)c2ccc(Cl)cc2)CC1 (stereo unspecified) [Hydroxyzine 2HCl],1.06,active: 0.32,0.602
CN(Cc1cnc2nc(N)nc(N)c2n1)c1ccc(C(=O)N[C@@H](CCC(=O)O)C(=O)O)cc1 [Methotrexate],1.11,inactive: 0.771,0.359
CC12CC3CC(C)(C1)CC(N)(C3)C2 [Memantine hydrochloride],1.03,inactive: 0.653,0.964
O=c1[nH]cnc2c1ncn2[C@H]1CC[C@@H](CO)O1 [Didanosine],1.51,inactive: 0.997,1.09
COc1ccc(-c2ccc3cc(C(=O)O)ccc3c2)cc1C12CC3CC(CC(C3)C1)C2 [Adapalene sodium salt],1.51,inactive: 1.42,0.78
OC[C@H]1O[C@@H](n2cnc3c2N=CNC[C@H]3O)C[C@@H]1O [Pentostatin],1.25,inactive: 0.851,0.875
COCCCOc1ccnc(C[S+]([O-])c2nc3ccccc3[nH]2)c1C (stereo unspecified) [Rabeprazole sodium],1.01,inactive: 0.875,1.25
CC(=O)O[C@]1(C(C)=O)CC[C@H]2[C@@H]3C=C(Cl)C4=CC(=O)[C@@H]5C[C@@H]5[C@]4(C)[C@H]3CC[C@@]21C [Cyproterone Acetate],1.04,inactive: 0.569,0.594
O=C1[C@@H]2[C@H]3CC[C@H](C3)[C@@H]2C(=O)N1CCCCN1CCN(c2ncccn2)CC1 [Tandospirone],1.18,inactive: 1.25,0.884
Cc1ncc(CO)c(CO)c1O [Pyridoxine],1.23,inactive: 0.745,1.01
CC=CC1=C(C(=O)O)N2C(=O)[C@@H](NC(=O)[C@H](N)c3ccc(O)cc3)[C@H]2SC1 [Cefprozil hydrate],0.961,inactive: 0.848,1.38
COc1ccc(-n2nc(C(N)=O)c3c2C(=O)N(c2ccc(N4CCCCC4=O)cc2)CC3)cc1 [Apixaban],1.32,inactive: 0.86,0.857
O=C1CN(/N=C/c2ccc([N+](=O)[O-])o2)C(=O)N1 [Nitrofurantoin],1.09,inactive: 0.681,0.866
C[C@]12C[C@H](O)[C@H]3[C@@H](CCC4=CC(=O)CC[C@@]43C)[C@@H]1CC[C@@H]2C(=O)CO [Corticosterone],1.07,inactive: 0.948,1.01
O=C(Nc1cccc2c(=O)cc(-c3nnn[nH]3)oc12)c1ccc(OCCCCc2ccccc2)cc1 [Pranlukast],1.18,inactive: 0.854,1.26
CC(C)(C)C(=O)C(Oc1ccc(Cl)cc1)n1ccnc1 (stereo unspecified) [Climbazole],0.837,inactive: 0.545,0.664
C[C@@H](c1ncncc1F)[C@](O)(Cn1cncn1)c1ccc(F)cc1F [Voriconazole],1.01,inactive: 1.38,1.3
CC1(C)S[C@@H]2[C@H](NC(=O)[C@H](NC(=O)N3CCN(S(C)(=O)=O)C3=O)c3ccccc3)C(=O)N2[C@H]1C(=O)O [Mezlocillin Sodium],0.916,inactive: 0.929,1.43
C=CCNC(N)=S [Allylthiourea],0.962,inactive: 0.869,1.32

SMILES,relative cell viability [1],relative GAG core protein HA-SDC1 amount per cell number [2],relative mutant VPS33A R498W amount [3]
O=C(N/N=C/c1ccc([N+](=O)[O-])o1)c1ccc(O)cc1 [Nifuroxazide],0.876,inactive: 0.782,0.648
CN1CCc2nc(C(=O)N[C@@H]3C[C@@H](C(=O)N(C)C)CC[C@@H]3NC(=O)C(=O)Nc3ccc(Cl)cn3)sc2C1 [Edoxaban tosylate monohydrate],1.22,inactive: 0.801,1.37
Cn1cnc2c(F)c(Nc3ccc(Br)cc3F)c(C(=O)NOCCO)cc21,1.15,inactive: 0.872,1.19
O=C(O)[C@H](CC(=O)N1C[C@H]2CCCC[C@H]2C1)Cc1ccccc1 [Mitiglinide Calcium],1.04,inactive: 0.745,1.52
CCOc1cc([C@@H](CS(C)(=O)=O)N2C(=O)c3cccc(NC(C)=O)c3C2=O)ccc1OC,1.08,inactive: 1.06,1.57
C1CNCCN1 [Piperazine],1.01,inactive: 1.05,1.13
CC#CC(=O)N1CCC[C@H]1c1nc(-c2ccc(C(=O)Nc3ccccn3)cc2)c2c(N)nccn12,1,inactive: 0.819,0.141
Cc1cccc(C)c1NC(=O)C1CCCCN1C (stereo unspecified) [Mepivacaine HCl],0.947,inactive: 1.06,0.934
NNC(=O)c1ccncc1 [Isoniazid],1.05,inactive: 0.923,1.42
FC(F)(F)c1ccc(/C=C/c2nc(COc3ccc(CCCCn4ccnn4)cc3)co2)cc1 [Mubritinib (TAK 165)],1.46,inactive: 1.15,1.45
Nc1nc(=O)n([C@@H]2CS[C@H](CO)O2)cc1F [Emtricitabine],1.16,inactive: 1.08,1.1
O=C1CN2Cc3c(ccc(Cl)c3Cl)N=C2N1 [Anagrelide HCl],1.02,inactive: 0.704,0.282
NC(=O)c1cnccn1 [Pyrazinamide],0.978,inactive: 0.916,1.67
C=CC1=C(C(=O)O)N2C(=O)[C@@H](NC(=O)/C(=N\OCC(=O)O)c3csc(N)n3)[C@H]2SC1 [Cefixime],0.911,inactive: 0.928,1.83
C#C[C@]1(O)CC[C@H]2[C@@H]3CCC4=CC(=O)CC[C@@H]4[C@H]3CC[C@@]21CC [Levonorgestrel],1.03,inactive: 0.814,0.94
OC(Cn1cncn1)(Cn1cncn1)c1ccc(F)cc1F [Fluconazole],0.999,inactive: 0.802,1.35
OCCc1ccc(O)cc1 [Tyrosol],1.14,active: 0.417,0.831
CCOc1nc2cccc(C(=O)OCc3oc(=O)oc3C)c2n1Cc1ccc(-c2ccccc2-c2noc(=O)[nH]2)cc1 [Azilsartan Medoxomil],1.05,inactive: 0.828,1.2
CCOc1nc2cccc(C(=O)O)c2n1Cc1ccc(-c2ccccc2-c2nnn[nH]2)cc1 [Candesartan],1.08,inactive: 0.885,1.23
Cc1ccc(O)cc1 [p-Cresol],1.03,inactive: 1.04,1.06
